The text below walks through data of paper PMC12820563, “FoxP3 forms a head-to-head dimer in vivo and stabilizes its multimerization on adjacent microsatellites”.

The other results are listed elsewhere or left out.

This experiment addresses T1, MBP-FoxP1dN (Mus musculus, UniProt P58462 326-579).
T1 sequence: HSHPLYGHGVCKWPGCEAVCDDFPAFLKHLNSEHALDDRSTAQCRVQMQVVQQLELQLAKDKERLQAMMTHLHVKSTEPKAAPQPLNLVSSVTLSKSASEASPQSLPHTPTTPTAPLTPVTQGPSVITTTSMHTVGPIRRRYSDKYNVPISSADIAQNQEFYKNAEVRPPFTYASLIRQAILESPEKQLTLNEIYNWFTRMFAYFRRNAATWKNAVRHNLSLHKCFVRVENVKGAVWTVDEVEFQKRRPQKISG
In words: PD-seq (MBP pull-down with sequencing); 20 mM Tris-HCl pH 7.5, 100 mM NaCl, 1.5 mM MgCl2, 0.4 uM protein, 0.1 uM dsDNA library, 30 min, room temperature, amylose pull-down; high values mean tight binding. Particulars: protein: recombinant; tags: His6-MBP; chain copies: 2; dsDNA, one strand shown. Summed up: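 Binding is the reads-per-million enrichment of pull-down relative to input, pooled across replicates. For this, 0.4 µM His6-MBP-tagged mouse FoxP3 or FoxP1 fragment lacking the N-terminus, made in E. coli, was incubated with 0.1 µM Klenow-filled double-stranded degenerate DNA library for 30 min at room temperature in Tris pH 7.5 buffer with NaCl and MgCl2. Complexes bound to amylose resin were washed three times before proteinase K released the DNA for PCR barcoding and Illumina sequencing.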
As to “GATGATTGTTCTCCCAGCTGATGAATTCGTTAACTCGAGTAAACAAATTTTCCTAATCTTTCTGTTCAAGCGCCATCTAC”, the binding signal was 0.899 RPM ratio (pull-down/input).
For “GATGATTGTTCTCCCAGCTGATGAATTAGGGTCGTCGAGTAAACAAATTTTCCTAATCTTTCTGTTCAAGCGCCATCTAC” the value was 0.782 RPM ratio (pull-down/input).
Regarding “GATGATTGTTCTCCCAGCTGATGAATTCAGCATGTCGAGTAAACAAATTTTCCTAATCTTTCTGTTCAAGCGCCATCTAC”, the binding signal is 0.834 RPM ratio (pull-down/input).
Take “GATGATTGTTCTCCCAGCTGATGAATTCGCCCCCTCGAGTAAACAAATTTTCCTAATCTTTCTGTTCAAGCGCCATCTAC”: the binding signal is 0.768 RPM ratio (pull-down/input).
Turning to “GATGATTGTTCTCCCAGCTGATGAATTGGGTATCTCGAGTAAACAAATTTTCCTAATCTTTCTGTTCAAGCGCCATCTAC”, the binding signal is 0.935 RPM ratio (pull-down/input).
For “GATGATTGTTCTCCCAGCTGATGAATTGTCTGTTTCGAGTAAACAAATTTTCCTAATCTTTCTGTTCAAGCGCCATCTAC” the value was 1.18 RPM ratio (pull-down/input); for “GATGATTGTTCTCCCAGCTGATGAATTCGTTTCATCGAGTAAACAAATTTTCCTAATCTTTCTGTTCAAGCGCCATCTAC”, 0.885 RPM ratio (pull-down/input); for “GATGATTGTTCTCCCAGCTGATGAATTCTTGATTTCGAGTAAACAAATTTTCCTAATCTTTCTGTTCAAGCGCCATCTAC”, 1.33 RPM ratio (pull-down/input).
Take “GATGATTGTTCTCCCAGCTGATGAATTAGTGCTTTCGAGTAAACAAATTTTCCTAATCTTTCTGTTCAAGCGCCATCTAC”: the binding signal was 1.15 RPM ratio (pull-down/input).
As for “GATGATTGTTCTCCCAGCTGATGAATTATGATGTTCGAGTAAACAAATTTTCCTAATCTTTCTGTTCAAGCGCCATCTAC”, the binding signal was 1.22 RPM ratio (pull-down/input).
For “GATGATTGTTCTCCCAGCTGATGAATTGGTGACATCGAGTAAACAAATTTTCCTAATCTTTCTGTTCAAGCGCCATCTAC” the value was 1.1 RPM ratio (pull-down/input); for “GATGATTGTTCTCCCAGCTGATGAATTGATCAGTTCGAGTAAACAAATTTTCCTAATCTTTCTGTTCAAGCGCCATCTAC”, 1.01 RPM ratio (pull-down/input).
As for “GATGATTGTTCTCCCAGCTGATGAATTTATTCGGTCGAGTAAACAAATTTTCCTAATCTTTCTGTTCAAGCGCCATCTAC”, the figure is 1.05 RPM ratio (pull-down/input).
With “GATGATTGTTCTCCCAGCTGATGAATTGCCCCGATCGAGTAAACAAATTTTCCTAATCTTTCTGTTCAAGCGCCATCTAC”, the binding signal is 0.835 RPM ratio (pull-down/input).
As for “GATGATTGTTCTCCCAGCTGATGAATTTTCGGTATCGAGTAAACAAATTTTCCTAATCTTTCTGTTCAAGCGCCATCTAC”, the figure is 0.949 RPM ratio (pull-down/input); as for “GATGATTGTTCTCCCAGCTGATGAATTCATGTCGTCGAGTAAACAAATTTTCCTAATCTTTCTGTTCAAGCGCCATCTAC”, 0.988 RPM ratio (pull-down/input); as for “GATGATTGTTCTCCCAGCTGATGAATTGTAAAGTTCGAGTAAACAAATTTTCCTAATCTTTCTGTTCAAGCGCCATCTAC”, 0.993 RPM ratio (pull-down/input).
“GATGATTGTTCTCCCAGCTGATGAATTAGAACTTTCGAGTAAACAAATTTTCCTAATCTTTCTGTTCAAGCGCCATCTAC”: the binding signal was 0.886 RPM ratio (pull-down/input).
With “GATGATTGTTCTCCCAGCTGATGAATTAGCGGGATCGAGTAAACAAATTTTCCTAATCTTTCTGTTCAAGCGCCATCTAC”, the binding signal is 0.824 RPM ratio (pull-down/input).
With “GATGATTGTTCTCCCAGCTGATGAATTAGGGTTATCGAGTAAACAAATTTTCCTAATCTTTCTGTTCAAGCGCCATCTAC”, the binding signal was 0.956 RPM ratio (pull-down/input).
Turning to “GATGATTGTTCTCCCAGCTGATGAATTAGAACTCTCGAGTAAACAAATTTTCCTAATCTTTCTGTTCAAGCGCCATCTAC”, the binding signal was 0.819 RPM ratio (pull-down/input).
For “GATGATTGTTCTCCCAGCTGATGAATTCGCTTCATCGAGTAAACAAATTTTCCTAATCTTTCTGTTCAAGCGCCATCTAC” the value was 0.861 RPM ratio (pull-down/input); for “GATGATTGTTCTCCCAGCTGATGAATTTGGGTGTTCGAGTAAACAAATTTTCCTAATCTTTCTGTTCAAGCGCCATCTAC”, 1.03 RPM ratio (pull-down/input); for “GATGATTGTTCTCCCAGCTGATGAATTCGCTACATCGAGTAAACAAATTTTCCTAATCTTTCTGTTCAAGCGCCATCTAC”, 0.968 RPM ratio (pull-down/input).
Regarding “GATGATTGTTCTCCCAGCTGATGAATTCGGCTTTTCGAGTAAACAAATTTTCCTAATCTTTCTGTTCAAGCGCCATCTAC”, the binding signal is 0.85 RPM ratio (pull-down/input).
As for “GATGATTGTTCTCCCAGCTGATGAATTAGTAAAGTCGAGTAAACAAATTTTCCTAATCTTTCTGTTCAAGCGCCATCTAC”, the figure is 1.05 RPM ratio (pull-down/input); as for “GATGATTGTTCTCCCAGCTGATGAATTTTATCGTTCGAGTAAACAAATTTTCCTAATCTTTCTGTTCAAGCGCCATCTAC”, 1 RPM ratio (pull-down/input).
As for “GATGATTGTTCTCCCAGCTGATGAATTTAGCACCTCGAGTAAACAAATTTTCCTAATCTTTCTGTTCAAGCGCCATCTAC”, the figure is 0.919 RPM ratio (pull-down/input); as for “GATGATTGTTCTCCCAGCTGATGAATTAAATAACTCGAGTAAACAAATTTTCCTAATCTTTCTGTTCAAGCGCCATCTAC”, 1.4 RPM ratio (pull-down/input); as for “GATGATTGTTCTCCCAGCTGATGAATTTTGGGGATCGAGTAAACAAATTTTCCTAATCTTTCTGTTCAAGCGCCATCTAC”, 0.804 RPM ratio (pull-down/input).
As for “GATGATTGTTCTCCCAGCTGATGAATTCCAGCGGTCGAGTAAACAAATTTTCCTAATCTTTCTGTTCAAGCGCCATCTAC”, the figure is 0.744 RPM ratio (pull-down/input).
